# Reference: PubChem BioAssay AID686979 (National Center for Advancing Translational Sciences (NCATS), 2013)
# Hit rate of the full screen: of about 420,000 compounds, about 50,000 (12%) were called active. This list was built around the results that the source calls inconclusive (neither active nor inactive); the mix of calls is not that of the screen. The call rests on the fitted dose curve; in most records, active means well fitted inhibition curve with a large enough effect; inconclusive means small, poorly fitted or top-dose-only effect; inactive means flat fitted curve, though single readings scatter. Potencies of inconclusive entries are left out as doubtful fits.
# Experiment: qHTS for Inhibitors of human tyrosyl-DNA phosphodiesterase 1 (TDP1): qHTS in cells in presence of CPT; further: nearly all actives have a fitted effect of over 55% in size
# Details: chicken DT40 Tdp1-/-;hTDP1 cells + 20 nM CPT, ATP luminescence, 48 h; activity change, negative = growth inhibition: at 46.2 µM (top of the series)
# Summary of the method: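 Cell growth measured by CellTiter-Glo luminescence after a minimum 48 h, 37 C compound exposure with 20 nM CPT in Tdp1-knockout DT40 cells stably expressing hTDP1, seeded 400/well; qHTS titration format.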
# On the % scale 0 is the no-effect control and ±100 the full control effect; potency means the concentration at half of the fitted maximal effect; tags describe the fitted curve by direction and shape.
SMILES,"activity change, negative = growth inhibition",Potency
Cc1ccc(NC(=O)CCC(=O)NNC(=O)C(c2ccccc2)c2ccccc2)c(C)c1,inconclusive: -33.7% [inhibitor],
Cc1ccc(OC(C)C(=O)Nc2ccc(Cl)cn2)c([N+](=O)[O-])n1 (centres undefined),inactive: 2.14%,
CCOc1ccc(-n2c(C)nc3cc(C(=O)NCCC4=CCCCC4)ccc32)cc1,,active: 18.4 µM
N/C(=N\S(=O)(=O)c1cc(C(F)(F)F)cc(C(F)(F)F)c1)c1ccc(Cl)cc1,,active: 18.4 µM
CCn1cc(C(=O)NCc2cccnc2)c(=O)c2cc(F)c(N3CCN(C(=O)c4ccco4)CC3)cc21,,active: 20.6 µM
Cn1nc(C(=O)N2CCN(S(=O)(=O)c3ccc(Cl)cc3)CC2)c2ccccc2c1=O,,"inconclusive [inhibitor, single point]"
O=C(N/N=C/c1ccc(O)cc1)c1cc[n+](Cc2ccccc2)cc1,inactive: 13.8%,
CCCC(=O)Nc1ncnc2c1ncn2[C@@H]1O[C@@H]2COP(=O)(O)O[C@H]2[C@H]1OC(=O)CCC,,"inconclusive [inhibitor, single point]"
O=c1c(CCc2ccccc2)nc2cnc(N3CCNCC3)nc2n1-c1ccccc1,inactive: -26.9%,
CCN1CCN(c2ccc(NS(=O)(=O)c3c(C)nc4sccn4c3=O)cc2Cl)CC1,,"inconclusive [inhibitor, single point]"
CC(Oc1ccc2c(c1)oc(=O)c1ccccc12)C(=O)NC(Cc1c[nH]c2ccc(O)cc12)C(=O)O (centres undefined),inactive: 16.9%,
O=C(NCc1ccccc1)C1c2ccccc2Oc2ccccc21,inactive: -14.4%,
CCOc1cc(C)c(S(=O)(=O)Nc2ccc(F)cc2)cc1C,,active: 15.8 µM
CCOc1ccc(N2C(=O)CC(NC3CCN(C(=O)c4ccc(F)cc4)CC3)C2=O)cc1 (centres undefined),,"inconclusive [inhibitor, single point]"
COc1ccc(Nc2ncc(C(=O)N3CCC(C(N)=O)CC3)c3ccccc23)cc1,inactive: 0.236%,
CSCCC(c1nc2ccccc2[nH]1)n1c(-c2ccc(C)cc2)nc2ccccc21 (centres undefined),,"inconclusive [inhibitor, single point]"
CCOC(=O)/C(C(=O)Nc1ccc(Br)cc1)=C1/NC(C)(C)Cc2ccccc21,,"inconclusive [inhibitor, single point]"
CCOC(=O)c1ccc(NC(=O)C2=C(C)Nc3nc(SCc4ccc(Cl)cc4)nn3C2c2ccc(OC)cc2)cc1 (centres undefined),,"inconclusive [inhibitor, partial curve]"
O=C(Nc1ccc2c(c1)Cc1cc([N+](=O)[O-])ccc1-2)C(F)(F)F,,"inconclusive [inhibitor, partial curve]"
